# Molecular target: APP-TAP-AICD (human, UniProt P05067)
# Experiment: streptavidin purification of APP-TAP-AICD from brain homogenate; iTRAQ 116/114, transgenic mouse 75 vs control mouse 72; MALDI-TOF/TOF;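 further: relative protein abundance in the transgenic versus control pull-down, limited to proteins with high quality scores and above-average enrichment, without full normalization across the whole measurement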
binder,measurement,value
ATP synthase beta chain; mitochondrial precursor (enzyme) not shown,iTRAQ ratio,5.02
